About 65 (0.1%) of roughly 45,000 compounds were called active. Calls come from the whole dose curve; as a rule, active = well fitted activation curve with a large enough effect; inconclusive = small, poorly fitted or top-dose-only effect; inactive = no such curve, though single readings can be large or run the other way. The list shows a part of the results.
molecular target: Galactocerebrosidase (Homo sapiens) (UniProt P54803); experiment: A Novel Cell-Based Assay to Identify Small Molecules for B -Galactocerebrosidase; settings: 145M-Twi-hGALC-G270D cells (Twitcher mouse brain line with human GALC G270D), HMU-beta-Gal fluorescence, 48 h; series mostly up to 57.5 µM; activation: at the top concentration; note: 0% is about no effect; nearly all actives have a fitted effect of over 65% in size
How it was run: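 Mutant human GALC (G270D), stably expressed in a Twitcher mouse brain cell line lacking endogenous GALC, is measured in live-treated cells via 6-hexadecanoylamino-4-methylumbelliferyl-β-galactoside hydrolysis (0.1 mM final, pH 5.2) with fluorescent detection.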

Sequence of UniProt P54803 (P54803 whole entry, looked up): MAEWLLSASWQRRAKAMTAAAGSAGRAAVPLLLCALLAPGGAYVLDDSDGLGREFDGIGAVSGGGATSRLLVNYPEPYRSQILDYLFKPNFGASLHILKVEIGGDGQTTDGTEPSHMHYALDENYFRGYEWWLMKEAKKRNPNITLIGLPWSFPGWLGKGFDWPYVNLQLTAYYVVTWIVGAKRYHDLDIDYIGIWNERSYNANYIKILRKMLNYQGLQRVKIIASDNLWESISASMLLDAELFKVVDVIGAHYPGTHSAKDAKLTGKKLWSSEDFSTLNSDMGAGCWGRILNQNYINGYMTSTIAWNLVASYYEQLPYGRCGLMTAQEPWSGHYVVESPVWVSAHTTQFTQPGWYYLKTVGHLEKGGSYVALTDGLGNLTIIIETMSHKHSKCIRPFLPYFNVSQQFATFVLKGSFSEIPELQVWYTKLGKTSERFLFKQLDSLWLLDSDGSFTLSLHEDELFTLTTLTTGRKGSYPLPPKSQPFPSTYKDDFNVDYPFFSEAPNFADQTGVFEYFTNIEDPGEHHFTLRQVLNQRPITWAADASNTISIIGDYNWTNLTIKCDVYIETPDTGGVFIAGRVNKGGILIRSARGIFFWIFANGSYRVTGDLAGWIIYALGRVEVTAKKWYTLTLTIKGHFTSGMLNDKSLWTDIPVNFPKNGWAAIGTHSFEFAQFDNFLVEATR

activation, inactive:
Cc1c(-c2nnc(SCC(=O)Nc3ccc(Cl)cc3)o2)nnn1-c1ccc(F)cc1 -1.73%, Cc1cc(Br)cc2c(C(=O)OCC(=O)c3ccccc3)cc(-c3ccccc3)nc12 -14.1%, COc1ccccc1N1CCN(C(=O)CCS(=O)(=O)c2cc(Br)cc3c2N(C(C)=O)CC3)CC1 -1.15%, COc1ccc(Cn2c(CO)cnc2SCc2cccc(C)c2)cc1 -15%, Cc1nc(N2CCCC2)ncc1C(=O)N1CCN(c2ccccc2F)CC1 -14.6%, O=C(COc1ccc(Cl)cc1)NCC(c1ccco1)S(=O)(=O)c1ccc(Cl)cc1 (stereo unspecified) -4.53%, Cc1cc(C)c2oc(-c3ccc(C)c(NC(=O)/C=C/c4ccco4)c3)nc2c1 -9.88%, COc1ccc(CNC(=O)c2cc3c(=O)n(C)c4ccccc4c3n2C)c(OC)c1 -23.3%, O=C(Nc1ccccc1)OCC(CN1CCCCC1)OC(=O)Nc1ccccc1 (stereo unspecified) -5.6%, Cc1ccc(NC(=O)c2nnn(CC(=O)Nc3ccc(C)c(Cl)c3)c2N)c(C)c1 -11.9%, CCS(=O)(=O)c1c(Nc2cc(C)ccc2C)sc(C(=O)c2ccccc2)c1N -12.7%, CC1=C(C(=O)Nc2ccccc2)C(c2cc(Br)ccc2F)n2ncc(C(=O)Nc3ccccc3)c2N1 (stereo unspecified) -0.688%, Cc1ccc(C(=O)n2nc(C)c(S(=O)(=O)N3CCOCC3)c2C)cc1C 0.273%, COc1cccc(-c2nc(S(=O)(=O)c3ccccc3)c(N3CCC(C)CC3)o2)c1 -25.4%, O=c1c2ccccc2nc(-c2ccc(Cl)cc2)n1CCCOc1ccccc1F 0.876%, CC(=O)Nc1nonc1-c1nnc(SCc2ccccc2F)n1C -12.5%, CCc1ccccc1NS(=O)(=O)c1ccc2c(c1)CC(=O)N2 13.1%, CC(C)(C)C(=O)OCOC(=O)[C@@H]1N2C(=O)[C@@H](NC(=O)[C@H](N)c3ccccc3)[C@H]2SC1(C)C -6.52%, CCOC(=O)c1cc(S(=O)(=O)Nc2cc(F)ccc2C)[nH]n1 -12.8%, CCCc1nn2c(=O)cc(COC(=O)c3ccccc3NC(=O)COc3ccccc3)nc2s1 -4.73%, COc1ccc(-c2cc(C(F)(F)F)n3nc(-c4ccccc4)cc3n2)cc1OC -6.65%, CCc1ccc(NC(=O)Cn2c(=O)n(CCC(C)C)c(=O)c3cccnc32)cc1 -18.8%, O=C(OCc1ccccc1)c1ccc(O)cc1 -17.3%, CCOC(=O)N1CCc2c(sc3c2C(=O)NC(c2cc(OC)c(OC)c(OC)c2)N3)C1 (stereo unspecified) -13.4%, COc1ccccc1NC(=O)c1c(NCc2ccc(C)o2)sc2c1CCCCC2 -17%, CCCCSc1nnc2n(-c3ccc(OC)cc3)c(=O)c3c4c(sc3n12)COC(C(C)C)C4 (stereo unspecified) -23.8%, Cc1ccc(/C=C/c2onc(C)c2S(=O)(=O)N2CCC(C(=O)Nc3ccccc3C(F)(F)F)CC2)cc1 -0.487%, CC(=O)c1ccc(N2CCN(c3ncnc4c3c(-c3ccccc3)cn4-c3ccc(Cl)cc3)CC2)cc1 -6.43%, COc1ccc(-n2c(=O)c3c(c4cc(OC)ccc4n3C)n(Cc3cccc(C)c3)c2=O)cc1 3.74%, COc1ccc2c(c1)c(=O)c(S(=O)(=O)c1ccccc1)cn2CC(=O)Nc1ccc(C)c(Cl)c1 2.42%, COc1cccc(CNC(=O)Cn2nc(-c3ccc(Cl)cc3)ccc2=O)c1 -22.6%, CC(=O)c1ccc(NC(=O)c2cc(C)nc3c2c(C)nn3-c2ccc(C)cc2)cc1 -11.3%, Cc1cccc2c1N(Cc1ccccc1OCCC(C)C)C(=O)C2=O -0.773%, CNC(=O)CSc1cn(CC(=O)N2CCCCCC2)c2ccccc12 3.15%, CC1=C(C(=O)Nc2ccc(C)cc2C)C(c2cccs2)n2nc(SCc3cccc(C)c3)nc2N1 (stereo unspecified) 10.2%, COc1ccc(-n2cc(C(=O)NCCc3cc(OC)ccc3OC)c3ccccc3c2=O)cc1 6.91%, CCC(C(=O)Nc1cccc(-c2nc3cccnc3s2)c1C)c1ccccc1 (stereo unspecified) 2.97%, CC(C)CC(=O)Nc1nnc(S(=O)(=O)N(C)Cc2ccc(Cl)cc2)s1 -7.2%, CCOC(=O)c1c(C)[nH]c(C)c1S(=O)(=O)N1CCCC(C(=O)NCc2ccc(N(C)C)cc2)C1 (stereo unspecified) -8.54%, O=C(CCOc1ccccc1)N(Cc1cccnc1)c1nc2ccc(Cl)cc2s1 -23.6%, CCOc1ccc(NC(=O)CSc2oc(-c3ccc(F)cc3)nc2S(=O)(=O)c2ccc(C)cc2)cc1 1.52%, CC(=O)CCC(=O)O -11.5%, COc1ccc(OC)c(NC(=O)CN2C(=O)CC(C)Sc3ccccc32)c1 (stereo unspecified) -3.21%, Cc1ccc(-n2c(=O)c3c4c(sc3n(Cc3cc(=O)n5ccccc5n3)c2=O)CCC4)cc1C -17.3%, COc1ccc(CNC(=O)Cn2ccc3cc(S(=O)(=O)N4CCCCC4)ccc32)cc1OC -3.52%, Cc1ccc(CN(Cc2ccco2)C(=O)c2oc3cc(Br)ccc3c2C)cc1 -11.4%, Cc1nc2nc(NC(=O)c3ccc(C(C)(C)C)cc3)[nH]n2c(=O)c1Cc1ccccc1 -20.8%, O=C(Nc1ccc(Br)cc1F)c1cc(S(=O)(=O)NC2CCCCC2)ccc1F -17.3%, CCOC(=O)c1ccc(NC(=O)CSc2nc3cc4ccccc4cc3[nH]2)cc1 -29.1%, O=C1N(Cc2ccccc2Cl)c2ccccc2C1(O)c1c[nH]c2ccccc12 (stereo unspecified) -17.9%, CC1=C(C(=O)OCC2CCCCC2)C(c2ccc(Cl)cc2)CC(=O)N1 (stereo unspecified) -1.56%, COc1cc(CN2CCN(S(=O)(=O)c3ccc(NC(C)=O)cc3)CC2)cc(OC)c1OC -16.3%, C/C=C(/C(=C/C)c1ccc(OC(C)=O)cc1)c1ccc(OC(C)=O)cc1 -13.1%, COc1ccc(Cl)cc1NC(=O)N(C)CCc1c(C)nn(C)c1C -5.85%, COc1ccccc1NC(=O)c1oc2ccccc2c1NC(=O)COc1cccc(C)c1 -17.8%, Cc1ccc2oc(-c3ccc(C)c(NC(=O)C(C)(C)Oc4ccc(Cl)cc4)c3)nc2c1 -24.7%, CCn1cc(C(=O)NCCc2ccc(OC)c(OC)c2)c(=O)c2cc(S(=O)(=O)N3CCCCCC3)ccc21 -7.82%, Cc1cccc(Cn2c(=O)n(Cc3ccccc3)c(=O)c3c2c2cc(C)ccc2n3C)c1 -11.6%, CC(=O)c1ccc(NS(=O)(=O)c2c(C)nc3scc(C)n3c2=O)cc1 -25.7%, CCOC(=O)c1sc2ccccc2c1S(=O)(=O)Nc1ccc(C(C)=O)cc1 -7.55%, CCc1ccc(N(CC)C(=O)Cn2nc(Cc3cccnc3)c3ccccc3c2=O)cc1 -1.06%

— PubChem BioAssay AID1159614 (National Center for Advancing Translational Sciences (NCATS), 2016)
